# Experimental data published in article PMC4336329 (PLoS ONE, 2015).
# About 14,000 (4.5%) of roughly 310,000 compounds showed an effect of 50% or more. Effects have a minus sign here. Some of the results follow.
# Molecular target: human ether-à-go-go-related gene (hERG) potassium channel (human, UniProt Q12809)
# Assay: primary screen, population patch clamp on CHO cells stably expressing hERG
# 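Further: peak tail current of the secondary pulse compared with the same well before compound.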
# human ether-à-go-go-related gene (hERG) potassium channel, sequence (Q12809 whole entry, looked up): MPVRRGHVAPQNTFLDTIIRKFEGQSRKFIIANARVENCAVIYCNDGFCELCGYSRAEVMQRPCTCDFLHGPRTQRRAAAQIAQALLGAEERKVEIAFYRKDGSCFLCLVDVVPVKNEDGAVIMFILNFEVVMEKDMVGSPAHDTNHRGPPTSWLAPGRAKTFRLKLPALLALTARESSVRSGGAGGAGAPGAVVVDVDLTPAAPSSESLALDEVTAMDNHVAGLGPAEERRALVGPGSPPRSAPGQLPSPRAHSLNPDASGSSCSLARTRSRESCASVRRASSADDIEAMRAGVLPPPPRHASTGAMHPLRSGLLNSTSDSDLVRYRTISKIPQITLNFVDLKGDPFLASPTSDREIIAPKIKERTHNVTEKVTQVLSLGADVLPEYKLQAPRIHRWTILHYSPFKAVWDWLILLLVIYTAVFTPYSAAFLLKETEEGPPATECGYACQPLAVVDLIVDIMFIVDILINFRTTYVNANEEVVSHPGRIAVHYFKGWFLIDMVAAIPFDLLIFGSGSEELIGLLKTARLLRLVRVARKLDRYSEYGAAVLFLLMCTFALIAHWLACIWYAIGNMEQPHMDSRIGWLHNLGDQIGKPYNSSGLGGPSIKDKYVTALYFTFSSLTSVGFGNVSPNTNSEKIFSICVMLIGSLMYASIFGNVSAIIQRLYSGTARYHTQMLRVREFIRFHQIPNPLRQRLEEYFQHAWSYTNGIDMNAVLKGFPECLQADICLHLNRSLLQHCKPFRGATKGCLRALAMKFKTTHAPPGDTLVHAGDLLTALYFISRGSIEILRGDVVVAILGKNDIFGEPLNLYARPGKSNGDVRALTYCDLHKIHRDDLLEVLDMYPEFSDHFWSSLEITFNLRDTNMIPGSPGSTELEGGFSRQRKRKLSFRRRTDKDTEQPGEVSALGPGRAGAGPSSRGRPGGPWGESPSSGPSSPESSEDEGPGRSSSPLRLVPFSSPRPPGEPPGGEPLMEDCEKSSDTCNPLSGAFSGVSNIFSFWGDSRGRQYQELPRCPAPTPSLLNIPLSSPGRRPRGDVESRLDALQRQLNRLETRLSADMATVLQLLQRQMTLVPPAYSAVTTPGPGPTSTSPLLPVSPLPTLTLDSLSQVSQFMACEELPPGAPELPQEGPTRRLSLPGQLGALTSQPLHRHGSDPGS
row,SMILES,"hERG current change (%, negative = inhibition) at 10uM"
1,Cc1cc(Cn2nnnc2-c2ccncc2)cc(C)c1O,6.54%
2,COc1ccc(-c2csc(/C(C#N)=C\c3ccc(OC)c([N+](=O)[O-])c3)n2)cc1,-5.86%
3,Cn1nccc1NC(=O)Nc1ccccc1,21.8%
4,COc1cc(/C=N/Nc2nc(Nc3ccccc3)nc(N3CCCCC3)n2)ccc1OCC(=O)O,-1.74%
5,COc1ccc(C(=O)N[C@H](C(=O)OCC(=O)NC(=O)c2cccn2C)C(C)C)cc1,-11.5%
6,C=C(C)CNC(=S)N=Nc1c(O)[nH]c2ccc([N+](=O)[O-])cc12,8.96%
7,O=C(CN1C(=O)c2cccc3cccc1c23)Nc1ccc2c(c1)OCO2,3.85%
8,COc1cc(C=O)ccc1OCc1ccncc1,16.5%
9,COc1cccc(NC(=O)CCCn2c(=S)[nH]c3ccccc3c2=O)c1,4.72%
10,O=C(Nc1ccc2c(c1)oc1ccccc12)C1CC1,11.1%
11,COc1ccc(NC(=O)CCNC(=O)c2ccco2)cc1OC,18%
12,CCOC(=O)c1c(C)[nH]c(C(=O)CSc2nnnn2-c2ccc(C)cc2)c1C,1.62%
13,COc1ccc(C(=O)NC(Cn2ccnc2)C(C)(C)C)cc1OC1CCN(C(C)C)CC1 (centres unmarked),-2.49%
14,O=C(O)CC1c2ccccc2CCN1S(=O)(=O)c1ccccc1 (centres unmarked),-1.51%
15,Cc1cc(NC(=O)C(C)SCC(=O)OCc2ccc([N+](=O)[O-])cc2)no1 (centres unmarked),-22.2%
16,CCCNC(=S)Nc1cccc(C(F)(F)F)c1,-4.65%
17,COc1ccccc1CNc1ccc(N2CCCCC2)cc1,-41.7%
18,Cc1ccc(CCNC(=O)c2cc(-c3ccncc3)nc3ccc(S(=O)(=O)N4CCOCC4)cc23)cc1,14.2%
19,CN(C)CCCO[C@@H]1[C@H]2OC(C)(C)O[C@H]2O[C@@H]1[C@H](O)CO.Cl,8.76%
20,Cc1cc2nc3n(c2cc1C)CC1CC(C(=O)NCc2cccc(C(F)(F)F)c2)N(C)C31 (centres unmarked),-66.7%
21,O=C(COC(=O)/C=C/c1ccc(F)cc1)Nc1nnc(-c2ccccc2)o1,2.39%
22,CCSc1nc(O)c(C2OC(=O)c3c2ccc(OC)c3OC)c(=O)n1CC (centres unmarked),2.71%

row,SMILES,"hERG current change (%, negative = inhibition) at 10uM"
1,O=C(O)CCN1C(=O)c2ccc(NC(=O)Cc3ccc(Cl)cc3)cc2C1=O,3.94%
2,COc1cc(NC(=O)c2ccc(Cl)cc2)c(OC)cc1NC(=O)CN1CCCCC1.Cl,-30.1%
3,CCCCCCCCN1C(=O)N(C)C(N(O)C(=O)NC)C1(C)C (centres unmarked),8.37%
4,CCc1ccccc1N1CN(Cc2cccnc2)CNC1=S,3.35%
5,O=C(Cc1ccccc1)NCc1n[nH]c(=S)n1-c1ccc(Br)cc1,15.5%
6,Cc1n[nH]c(=S)n1/N=C/c1ccccc1OCc1ccc(Cl)cc1Cl,2.18%
7,Cc1ccc(S(=O)(=O)N(C)C)cc1NC(=O)c1ccc(-n2cncn2)c([N+](=O)[O-])c1,-38.8%
8,Cc1cc(/C=C2/C(=O)NC(=O)N(Cc3ccco3)C2=O)c(C)n1-c1ccccc1O,-2.83%
9,O=C(CCNS(=O)(=O)c1cccs1)N1CCN(c2ccc(F)cc2)CC1,-20.7%
10,COc1nnc(-c2ccc(N3CCOCC3)c(NC(=O)c3ccco3)c2)c2ccccc12,-70%
11,O=C(O)c1ccccc1Nc1ccc([N+](=O)[O-])cc1,-7.2%
12,CCOC(=O)c1c(C)[nH]c(C(=O)OCC(=O)Nc2cc(C)c(Cl)cc2OC)c1C,6.85%
13,Cc1ccc(S(=O)(=O)Nc2cccc(C(=O)NCCCN3CCCC3=O)c2)cc1F,-11.1%
14,O=C(CN1CCN(c2ccccn2)CC1)Nc1ccc(Oc2ccccc2)cc1,-11.8%
15,Cc1ccc(CCNC(=O)C(C)n2nc(C)c3c(C)n(-c4ccccc4)nc3c2=O)cc1 (centres unmarked),-36.3%
16,Cc1cc(C)c(NC(=O)C2CSCCS2)c(C)c1 (centres unmarked),0.768%
17,COc1ccc(CN2CCCC(C(=O)N3CCCC3)C2)cc1.O=C(O)C(=O)O (centres unmarked),-41.2%
18,CC(OC(=O)CCN1C(=O)c2cccc([N+](=O)[O-])c2C1=O)C(=O)Nc1cc(Cl)cc(Cl)c1 (centres unmarked),-68.6%
19,CCOC(=O)N1CCN(C(=O)C(NC(=O)C2CCC(C)CC2)C(C)C)CC1 (centres unmarked),4.68%
20,CCc1nnc(NC(=O)CSc2nnc(-c3cccnc3)n2C)s1,13.6%
21,O=S(=O)(NCCOc1ccccc1F)c1cccc(Br)c1,14.9%
22,O=[N+]([O-])c1ccc2c(c1N1CCCCC1)=NC1(CCCCC1)[N+]=2[O-],-8.78%

row,SMILES,"hERG current change (%, negative = inhibition) at 10uM"
1,CSc1ccccc1NC(=O)Cn1ccsc1=N,33.3%
2,C=CCNC(=O)/C(C#N)=C\c1cc(Cl)c(OCC)c(OC)c1,3.59%
3,COc1ccc(C(=O)Nc2ccc3ccccc3c2)cc1,20.4%
4,Cc1ccc(S(=O)(=O)N(CCO)Cc2cc3ccc(C)c(C)c3[nH]c2=O)cc1,-23.6%
5,Cc1ccc(S(=O)(=O)Nc2ccc(NC(=O)CN3CCCCC3)c(Cl)c2)cc1,1.31%
6,Cc1ccc(S(=O)(=O)N2CCOCC2)cc1NC(=O)COC(=O)Cn1c(C)csc1=O,11.4%
7,COCCCn1c(SCC(=O)Nc2ccccc2)nnc1-c1ccncc1,-6.82%
8,Cc1ccccc1NC(=O)CN1C(=O)COc2ccc(S(=O)(=O)N3CCCC3)cc21,21.8%
9,COCCn1c(Cc2cccn2C)nnc1SCC(=O)Nc1nccs1,0.101%
10,Cc1cc(C)n(-c2nc(SCC(=O)O)c3c4c(sc3n2)CCCC4)n1,6.68%
11,Cc1ccccc1NC(=O)Cc1nc(COC(=O)c2cccc([N+](=O)[O-])c2)cs1,-4.6%
12,O=S(=O)(NCCn1cccc1)c1ccc2ccccc2c1,4.41%
13,O=C(Nc1ccc(Br)c2ccccc12)c1ccc2ccccc2c1O,22.6%
14,CCCCCCC(=O)N/N=C/c1c(O)n(CCc2ccccc2)c(=O)[nH]c1=O,1.69%
15,COc1ccc(Cl)cc1C(=O)Nc1ccc(CN2CCCCC2)cc1,-52%
16,COc1ccc(N2CSC3=C(C#N)C(c4cccc(OC)c4OC)CC(=O)N3C2)cc1 (centres unmarked),7.55%
17,Cc1[nH]c2ccccc2c1C(c1ccncc1)N1CCC(C)CC1 (centres unmarked),10.3%
18,COc1ccccc1NC(=O)c1cc(C(=O)O)ccc1C(=O)O,20.4%
19,O=C(CN(c1ccccc1)S(=O)(=O)c1ccccc1)NCCSc1nc2ccccc2s1,1.28%
20,CC(Nc1n[nH]c(=S)[nH]c1=O)C(=O)OCc1ccccc1 (centres unmarked),-0.223%
21,CCOC(=O)Cn1c(C)cc(=O)c2ccccc21,-1.93%
22,C#CCSc1nc(Cc2ccc(Cl)cc2)nc2ccccc12,35.8%

row,SMILES,"hERG current change (%, negative = inhibition) at 10uM"
1,COc1ccc(C(=O)/C=C/c2ccc(OC)c(Cn3nnc4ccccc43)c2)cc1,-0.745%
2,COc1ccc(NS(=O)(=O)c2ccc(F)c(F)c2F)cc1S(=O)(=O)N1CCOCC1,-7.74%
3,CCOC(=O)Cc1cn2c(=O)cc(CSCC(=O)Nc3ccc(C)c(C)c3)nc2s1,5.04%
4,COc1ccccc1NC(=O)c1ccccc1Oc1ccccc1,11%
5,COc1ccccc1CNCC(=O)Nc1ccc(C(F)(F)F)cc1.Cl,-11.9%
6,Cc1c(C(=O)NCc2ccco2)oc2c(F)cccc12,1.08%
7,Cc1noc(C)c1C(=O)N1CCN(c2ncccn2)CC1,7.26%
8,CCC(=O)Nc1ccc(C(=O)OCC(=O)c2ccc(C)c([N+](=O)[O-])c2)cc1,-0.0941%
9,CCN(c1ccccc1)S(=O)(=O)c1ccc(C(=O)N(CCN(C)C)c2nc3c(F)cc(F)cc3s2)cc1.Cl,-54.7%
10,COc1cc(NC(=O)Cn2c([N+](=O)[O-])cnc2C)c(OC)cc1Cl,10.5%
11,O=C(NCCN1CCOCC1)C1CCN(Cc2ccccc2O)CC1,19.2%
12,CCOC(=O)COc1ccc(S(=O)(=O)c2ccc(OCC(=O)OCC)cc2)cc1,-6.24%
13,C#CCn1cc(/C=C2\NC(=O)NC2=O)c2ccccc21,12.6%
14,COC(=O)c1cc(=O)nc2sccn12,1.97%
15,COc1ccc(Cc2nnc(NC(=O)c3cccc([N+](=O)[O-])c3)s2)cc1,42.1%
16,Cc1ncc([N+](=O)[O-])n1Cc1ccccc1,-3.84%
17,CC(=O)Nc1ccc(S(=O)(=O)NCCC(=O)NCC2COc3ccccc3O2)cc1 (centres unmarked),12.8%
18,CCOC(=O)c1c(-c2ccc(F)cc2)csc1NC(=O)CCN1CCOCC1.O=C(O)C(=O)O,-48.7%
19,O=c1ccnc(SCc2ccccc2Cl)[nH]1,14.7%
20,O=C(Cn1c(Cc2ccccc2)nc2ccccc21)NCc1ccc2c(c1)OCO2,-10.6%
